Reference: the supplement of paper PMC3334620
The full ranking holds about 33,000 sequences; the median of “E-score (-0.5 to 0.5)” is about -0.053, and the highest 2% start at about 0.37. Some of the results follow.

Target: Hap1 (UniProt P0CE41)
Assay: PBM E-score (8-mer binding enrichment) (E-score (-0.5 to 0.5)); higher = stronger / more preferred TF binding; most listed sequences are background and not binding sites
Conditions: protein concentration: 200 nM; construct: GST-DNA-binding domain
Procedure, shortened: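 E-scores (a modified Wilcoxon-Mann-Whitney statistic) were assigned by the Universal PBM Analysis Suite to every ungapped eight-base word pooled with its reverse complement. The input came from universal all-10-mer Agilent arrays made double-stranded by primer extension and probed with GST-tagged yeast transcription factors at about 100-200 nM. Fluorescent anti-GST detected bound protein, and masliner normalised the scans.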

UniProt P0CE41, sequence (P0CE41 whole entry): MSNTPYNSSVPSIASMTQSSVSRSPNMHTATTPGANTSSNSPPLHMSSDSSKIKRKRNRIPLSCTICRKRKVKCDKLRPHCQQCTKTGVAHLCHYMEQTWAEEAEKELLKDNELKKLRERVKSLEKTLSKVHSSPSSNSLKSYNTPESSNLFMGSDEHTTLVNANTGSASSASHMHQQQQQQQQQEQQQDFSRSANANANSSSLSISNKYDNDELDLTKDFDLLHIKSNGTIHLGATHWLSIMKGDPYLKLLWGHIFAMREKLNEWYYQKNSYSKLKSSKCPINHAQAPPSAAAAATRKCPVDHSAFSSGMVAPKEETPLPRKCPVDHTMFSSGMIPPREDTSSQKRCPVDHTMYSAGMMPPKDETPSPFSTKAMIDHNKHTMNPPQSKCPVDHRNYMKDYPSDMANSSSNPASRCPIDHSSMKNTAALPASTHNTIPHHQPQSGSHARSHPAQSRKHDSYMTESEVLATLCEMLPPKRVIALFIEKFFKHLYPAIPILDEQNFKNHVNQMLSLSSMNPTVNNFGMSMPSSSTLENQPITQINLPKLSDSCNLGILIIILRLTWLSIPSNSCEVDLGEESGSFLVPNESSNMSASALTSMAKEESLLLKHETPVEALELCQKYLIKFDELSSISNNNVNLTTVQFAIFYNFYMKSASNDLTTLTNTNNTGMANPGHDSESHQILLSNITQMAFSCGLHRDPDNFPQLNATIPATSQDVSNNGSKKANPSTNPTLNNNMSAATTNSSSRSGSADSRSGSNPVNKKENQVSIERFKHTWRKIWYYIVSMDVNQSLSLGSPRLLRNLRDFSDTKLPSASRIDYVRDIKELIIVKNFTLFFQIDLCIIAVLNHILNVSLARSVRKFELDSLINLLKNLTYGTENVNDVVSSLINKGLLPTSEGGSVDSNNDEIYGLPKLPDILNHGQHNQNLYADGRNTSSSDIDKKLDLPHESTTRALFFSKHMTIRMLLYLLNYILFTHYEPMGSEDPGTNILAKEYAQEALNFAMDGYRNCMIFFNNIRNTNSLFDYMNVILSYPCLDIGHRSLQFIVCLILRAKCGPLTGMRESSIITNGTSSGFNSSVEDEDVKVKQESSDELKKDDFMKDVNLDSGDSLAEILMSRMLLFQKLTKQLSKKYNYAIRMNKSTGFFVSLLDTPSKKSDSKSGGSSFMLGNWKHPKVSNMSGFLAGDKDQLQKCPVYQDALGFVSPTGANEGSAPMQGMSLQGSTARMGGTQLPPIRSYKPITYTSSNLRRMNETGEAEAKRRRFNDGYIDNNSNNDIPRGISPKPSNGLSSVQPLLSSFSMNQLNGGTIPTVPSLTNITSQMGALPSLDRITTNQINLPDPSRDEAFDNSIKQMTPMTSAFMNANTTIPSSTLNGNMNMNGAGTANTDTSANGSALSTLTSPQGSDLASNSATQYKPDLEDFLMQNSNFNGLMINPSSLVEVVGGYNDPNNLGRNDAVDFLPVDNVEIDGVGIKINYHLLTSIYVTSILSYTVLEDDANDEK

| Sequence | PBM E-score |
| --- | --- |
| GCAGGCTA | -0.169 |
| ACGTGGGC | -0.204 |
| ACTGAGAC | -0.277 |
| ATGGCTTC | -0.236 |
| ATTACGCC | -0.0918 |
| ACGCCGAC | 0.299 |
| AAATATCC | 0.22 |
| TCGGTTAA | 0.363 |
| CGGGTGGA | 0.31 |
| CTGCGAGC | 0.111 |
| AACCGAAT | 0.301 |
| ATCTGTCA | -0.0601 |
| CTCGATTC | -0.17 |
| GCAAGTAA | 0.0581 |
| CCGGCTCA | 0.312 |
| ATGCCGAG | 0.285 |
| ATTCCAAT | -0.188 |
| AAGGCGCG | -0.0965 |
| ATGCAATC | -0.113 |
| ATGGACTA | -0.0822 |
| CGTATGAA | -0.0342 |
| CTTCTTTA | 0.0253 |
| CACACGAA | -0.179 |
| AAACCCGC | 0.335 |
| TGGTTACA | -0.173 |

| Sequence | PBM E-score |
| --- | --- |
| ATACCTTC | -0.0671 |
| ACCAGAAG | -0.297 |
| ACAGACTA | -0.246 |
| GTAAATTA | -0.0234 |
| CAGGCCGC | -0.0693 |
| ACCTTCAG | -0.243 |
| CACGCTCC | -0.11 |
| CAGATATA | -0.0944 |
| CGAATCCG | 0.208 |
| GAAGTCAA | -0.0685 |
| AGCCTTTC | -0.0369 |
| ATTCAACA | -0.0848 |
| CCTTTAAC | 0.00377 |
| AATCCTTA | -0.203 |
| ATTCGCGA | 0.0217 |
| CCCCCCCG | -0.203 |
| AAAAGCCT | -0.221 |
| ATAGTCAT | -0.106 |
| ATGTGGCG | 0.00551 |
| GCCCTCGC | -0.0401 |
| GTGTATAA | -0.311 |
| CCCGGGCC | 0.387 |
| CCGACTGA | 0.167 |
| CCGACGCC | 0.303 |
| AATAGGGT | -0.143 |

| Sequence | PBM E-score |
| --- | --- |
| CACACTCA | -0.139 |
| AGCCTCCC | -0.194 |
| ATACACTA | -0.115 |
| ACACAAAG | -0.193 |
| CAAGTATG | -0.187 |
| TCGAGCGA | 0.105 |
| CAAATCAA | -0.253 |
| CCGCACAC | 0.126 |
| AGATCGGA | 0.376 |
| CCTGATTA | 0.114 |
| AATTGTCC | 0.101 |
| ACAGTACA | -0.00621 |
| AGACAGTG | -0.0768 |
| AGACTTTA | -0.201 |
| AGCACAGA | -0.079 |
| GAAATCTA | 0.114 |
| ATGTCTGG | 0.0302 |
| AGAATTCT | 0.108 |
| CCTGTCGC | -0.0985 |
| AGGGAATG | -0.197 |
| CCTTTTTC | -0.0545 |
| GTAGTTTA | 0.0265 |
| GAATAGCA | -0.099 |
| GAAACGAC | -0.037 |
| AAAAAAAC | -0.0967 |

| Sequence | PBM E-score |
| --- | --- |
| ACCCCGTA | 0.0631 |
| CAAGGACG | -0.219 |
| ACCTAACA | 0.0797 |
| GCTGCACA | -0.164 |
| ACTTGAGG | -0.147 |
| CGCCGGCA | 0.349 |
| CAAAGGCC | -0.00112 |
| ACGGGCCA | 0.226 |
| GACTGTGC | -0.247 |
| CCCCTGCG | -0.134 |
| CCGACCCA | 0.348 |
| AACAGTAC | -0.075 |
| CTTGAGGC | -0.0726 |
| TTATGCAA | -0.287 |
| ATTGTACA | -0.0711 |
| AAGTACGC | -0.0917 |
| ACGCTGGC | -0.0746 |
| GTGACAGA | -0.0988 |
| ACTGAACG | -0.195 |
| ACATTAAC | -0.00477 |
| AGTTCCGC | 0.278 |
| ACGAGGAT | -0.248 |
| CTCCTTAC | -0.144 |
| AGCGTCCT | -0.288 |
| GTTTTTCA | -0.0668 |

| Sequence | PBM E-score |
| --- | --- |
| GAAAACCA | -0.0432 |
| ATCGCATA | 0.124 |
| ATGGGATA | -0.118 |
| TGACTCAA | -0.251 |
| ATCCAAAT | -0.0458 |
| GCGGGCCC | 0.216 |
| CCCTCTTC | -0.218 |
| ATTCCCAA | -0.0973 |
| ACTGCTCA | -0.177 |
| GGTCCTTA | 0.0379 |
| AGATTCCG | 0.336 |
| CAAAAGGA | -0.125 |
| CGCACATA | 0.105 |
| CCAGGCCG | 0.0209 |
| AGAGAGCT | -0.23 |
| AGTTGGGG | 0.00602 |
| ATTCAAGA | -0.0722 |
| GACGAACA | 0.179 |
| GGCAGAAA | 0.137 |
| CGCTAGTC | -0.203 |
| GTCCTCAC | -0.0706 |
| CTCGTCTA | -0.272 |
| AAGTACAC | -0.08 |
| AAGCAATA | -0.0998 |
| ATAGGCCC | 0.209 |

| Sequence | PBM E-score |
| --- | --- |
| AACGGCTA | 0.0898 |
| ATCCAGCA | -0.294 |
| CCGCATAC | 0.153 |
| GGTCAGCA | -0.0216 |
| GCGTATAC | -0.0823 |
| CGTTGTAC | -0.112 |
| AGGAGAAC | -0.106 |
| ATGGAGTA | -0.0136 |
| TAAGCACA | 0.00547 |
| GTGAGGGA | -0.133 |
| CGGGTCCC | 0.117 |
| AATTCTGA | -0.12 |
| GTCCTCAA | -0.128 |
| CAACGTCG | 0.0653 |
| GACGCGGA | 0.133 |
| ATGTGCTC | -0.0449 |
| ATCCCATG | -0.0497 |
| ATACACTC | 0.0362 |
| CTCAAGGC | -0.0737 |
| CATATTAA | -0.184 |
| ACCAAGCA | -0.145 |
| ACAGCCGG | 0.315 |
| AGTTATGC | 0.0344 |
| ACAGCACC | 0.0827 |
| ACCGCCTA | 0.0313 |

| Sequence | PBM E-score |
| --- | --- |
| CCATTTTC | 0.0262 |
| GGTTTGGA | -0.178 |
| ATGTCGTG | -0.241 |
| AGTTATAA | -0.15 |
| CTAATTCA | -0.11 |
| CGCATGTA | 0.0504 |
| CGTACAAG | -0.0575 |
| AAGCTCGA | -0.0556 |
| ACTGTTAC | -0.229 |
| CAGTGAAA | -0.0601 |
| ATGTCTGA | -0.225 |
| AGCTGCCA | -0.131 |
| CAAACTAC | -0.155 |
| GCTCCCAC | -0.125 |
| CGTTCCGC | 0.211 |
| CCCACTTA | -0.0913 |
| CGCAACAG | 0.105 |
| CCAGATCG | -0.0037 |
| ATTTTCAA | 0.00636 |
| ACATAGAA | 0.00827 |
| AAGACAAA | -0.142 |
| CAGCGGAC | 0.184 |
| TAAAGGTA | -0.163 |
| CACTAAAG | -0.138 |
| CTTTGATC | -0.0525 |

| Sequence | PBM E-score |
| --- | --- |
| ATTACAAC | 0.00988 |
| ATACCTCA | -0.194 |
| CTGGATTC | -0.0302 |
| ACTTCCTC | -0.237 |
| CAGCCCTG | -0.141 |
| CGACGCAG | 0.0463 |
| TCCCGTAA | 0.145 |
| AGAGAAAG | -0.282 |
| AACAGCTG | -0.207 |
| AACTGCAC | -0.18 |
| GCTGAAGA | -0.137 |
| CAGCTACC | -0.096 |
| CAATCCGG | 0.375 |
| ATTGCTCA | -0.281 |
| ATTTGCTC | 0.0183 |
| AGATTGTG | -0.129 |
| CTGGTTTA | -0.309 |
| CACCTAAC | -0.012 |
| TCTCGACA | -0.0465 |
| AGTACACA | -0.00376 |
| GCTTTCGA | -0.173 |
| CAACTGTA | -0.234 |
| CCACTTCG | 0.164 |
| ATTGTTTC | 0.193 |
| ATGTCAGG | -0.163 |

| Sequence | PBM E-score |
| --- | --- |
| CCCGAGGA | 0.192 |
| AGGAGGAG | -0.289 |
| CTTTGATA | -0.0983 |
| CGGTGTTC | 0.235 |
| CCATGCTC | -0.219 |
| CAAAAGAA | -0.0306 |
| CTCTGTGC | -0.198 |
| CAAGATTA | -0.0378 |
| CTTGTCTC | -0.073 |
| AAAGCCCC | 0.106 |
| CAAAGCAG | -0.131 |
| AGGGGCGC | 0.00991 |
| AAGGAGCC | -0.142 |
| AAACTTTC | 0.0788 |
| ACAGGCGT | -0.0667 |
| ATCTTTAA | -0.0391 |
| ACTTATAT | 0.0307 |
| CAATCCCA | -0.0601 |
| ATACATGG | -0.134 |
